# Source: the supplement of paper PMC3334620
# Whole data set: some 33,000 sequences, median “E-score (-0.5 to 0.5)” near -0.01, cut for the highest 2% near 0.26. Some of the results follow.
# Biological target: Ste12 (UniProt P13574)
# Experiment: PBM E-score (8-mer binding enrichment) (E-score (-0.5 to 0.5)); higher = stronger / more preferred TF binding; most listed sequences are background and not binding sites
# Conditions: protein concentration: 200 nM; construct: GST-DNA-binding domain
# Outline: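 Universal all-10-mer Agilent arrays, fresh or stripped once, were converted to double-stranded form by primer extension. GST-tagged yeast transcription factors from PURExpress in vitro transcription/translation, full-length or DNA-binding domain only, were applied at about 100-200 nM and detected with fluorescent anti-GST. After masliner normalisation, the Universal PBM Analysis Suite scored each ungapped eight-base word together with its reverse complement by E-score.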
row,Sequence,PBM E-score
1,ACGGTGAG,-0.0735
2,GAGATCGC,-0.106
3,AAATCCTG,0.00572
4,CACCGTAC,0.00821
5,GGATTTTA,0.0949
6,CTACGTAG,-0.291
7,AAGCGTCT,-0.0972
8,CATGCTTA,-0.114
9,TCTAATCA,0.0397
10,ATGTAAGC,0.0956
11,AGGCCTTA,-0.202
12,TATTATCA,0.188
13,CAATGACG,-0.19
14,GTAATCGA,-0.112
15,AGTGGCTA,-0.1
16,ACGAACAC,0.063
17,TGGAAACA,0.153
18,GAGATTCA,-0.0351
19,CCTAAAGA,-0.0117
20,CTCGTTTA,0.0722
21,CGTTTCCA,0.301
22,CCCTTGAC,-0.112
23,CAACTATG,0.0343
24,CAGGACTA,-0.139
25,CGATTTCA,0.00338

row,Sequence,PBM E-score
1,CGGCGTCA,0.0737
2,CTTTTTAA,0.104
3,CTCTGCAG,-0.164
4,AAGATCTT,-0.0528
5,AATAGACC,-0.171
6,GATGTCAC,0.0506
7,ACCGTAAT,-0.0922
8,ATGAGAAC,0.118
9,ATCATGAC,0.131
10,ACAAGCGG,0.106
11,ACTATCAA,0.2
12,CCAGCCGA,-0.0203
13,CGGAACTC,-0.0357
14,AATGTCGC,0.104
15,GGGTCGAC,-0.16
16,CTCCGGCA,0.171
17,GACCCAAC,0.0185
18,CCAAGGCA,-0.0268
19,ACCGTGTC,-0.123
20,ACACTTCC,-0.0741
21,AAGCTTTA,0.0977
22,CAGCGTAC,-0.158
23,CTCCTTTC,0.175
24,CGGGGTAC,0.00433
25,CAGGTCGC,-0.142

row,Sequence,PBM E-score
1,ACTGTAGA,-0.0111
2,ATGGGTTC,-0.094
3,AGGGTATA,0.089
4,TCAAATAA,0.104
5,ATTTCTCA,0.0701
6,CGTATAAA,0.263
7,ATGTGATC,0.0378
8,GCCTATCA,-0.207
9,ATATAGGA,-0.043
10,CCATCACC,-0.0108
11,GGTCGCAA,0.149
12,GCGGGGGA,-0.143
13,ATCACTTG,0.0286
14,AACAGAAG,-0.0718
15,GCGGGGCA,-0.101
16,CAGCTTTC,0.029
17,CCGTGTAA,-0.046
18,CTACTCAA,0.0762
19,AAGGCACC,0.0536
20,ACTCAGTA,-0.0231
21,GACTCAGC,-0.116
22,CCACAAGC,-0.0374
23,CAACGCCG,-0.116
24,ACGTGTCA,0.0322
25,ACAGTTCT,0.0335

row,Sequence,PBM E-score
1,CGAGCAAG,-0.0663
2,TCTGCGAA,-0.166
3,GCGGTGAC,-0.095
4,TAAGGCCA,-0.248
5,CTACGCGC,0.0872
6,GCGATTGA,-0.0222
7,AACTCCCT,-0.0624
8,CATTTATC,0.0356
9,ACAAAACC,0.171
10,GACAGATC,-0.103
11,ACTCAATG,-0.00127
12,ACGATTCT,-0.00452
13,GTTTTATA,0.399
14,ACCTCGGG,-0.0521
15,GAGGGTAA,0.0637
16,ACTCCGAG,0.0847
17,CGCCGTAC,-0.0758
18,GCATCTAC,0.0977
19,CTGCTCTC,0.0432
20,GACGACCC,-0.0465
21,ACCAGAGC,0.101
22,AATGGAAC,-0.0117
23,AAGAATAG,0.132
24,AGTTGGTA,0.0136
25,ACTTGGCG,0.0439

row,Sequence,PBM E-score
1,GCGACCCC,0.0725
2,CGAAAGCG,-0.181
3,AACTCAAG,-0.00801
4,AGGGCTCC,-0.236
5,ATCTCATG,-0.0609
6,CCTTGTCG,-0.173
7,GGGACATA,0.0245
8,ACAATAGT,0.127
9,AAGAATAA,0.131
10,ACATCGGC,0.0795
11,GCATTCAC,0.0905
12,AACAGACG,-0.0377
13,AAACTTCG,-0.0281
14,GCAAAGAC,-0.0128
15,AATGCCAC,-0.0456
16,ACTTGGAA,-0.00351
17,ATCTGGCA,-0.0184
18,CCAGACGA,-0.141
19,ACGGCAAG,0.0378
20,GTCGTATA,-0.0884
21,AAGGAGCT,-0.283
22,CTACATGC,-0.123
23,ACAGTGTG,0.18
24,AGCGTGTA,-0.231
25,AATCTAGG,0.0839

row,Sequence,PBM E-score
1,GTGGGTGA,0.183
2,ACTGATGA,-0.053
3,GAAACCGA,0.267
4,CCTCAATC,0.0454
5,ACATAATA,0.222
6,CCAAAAGG,-0.194
7,GTTGATCA,0.00878
8,GAATAGAC,-0.0965
9,CCAGCAGA,-0.022
10,CTGCAAGC,-0.141
11,CATCGGAG,-0.2
12,CTGATCAA,-0.0287
13,GGCACGAA,0.035
14,CGTCGTAC,-0.218
15,ACTGGAGC,-0.328
16,CGACAAAC,-0.0263
17,AATTCAGA,0.0828
18,CAGATCTG,-0.14
19,AATTAAGT,0.118
20,CTTGGCAA,-0.262
21,CAATGCTG,-0.0877
22,GGAGTACA,-0.211
23,CACGGGGG,0.00781
24,TGACCTCA,-0.0719
25,CAAAAGCG,0.14

row,Sequence,PBM E-score
1,GGAATTCA,0.142
2,ACAAAACT,0.125
3,CGCTCAAA,-0.0172
4,GATAATTA,0.105
5,CACTGACG,-0.18
6,AAATAGGA,0.174
7,AGAGGGTA,-0.185
8,AACTGCTG,-0.0958
9,CGCAGCCG,-0.0899
10,CCGTTCTC,0.0324
11,AGCTACCG,-0.167
12,AGTGTACG,-0.0692
13,ATCCAATA,0.0549
14,CCCAACCC,0.136
15,CAGAACTA,0.0297
16,ACGCCACT,-0.0403
17,TAAGCGGA,-0.0964
18,CGTTAGCC,-0.085
19,GCATCAGA,0.0665
20,GTACCCTA,-0.0126
21,AACGTCTT,0.0794
22,GTCTGCCA,-0.046
23,ACGAAACA,0.327
24,ACTGGCCA,0.0116
25,GTCTCCGA,0.0356

row,Sequence,PBM E-score
1,AAATTAAA,0.206
2,AATCTGCC,0.0573
3,CGCTGACG,-0.188
4,TATGTGCA,-0.089
5,TATAAACA,0.114
6,CGCTGCAA,0.0221
7,AAGGCGCT,0.0428
8,CAGTTTGA,0.213
9,GCCGCTCC,-0.273
10,ACACCTGT,-0.049
11,GTCACAAA,0.132
12,AATTCTCT,-0.111
13,CCCCGGAG,0.0451
14,CGAAGGCG,-0.0132
15,GTGTCATA,0.194
16,ATCTAACC,0.0657
17,AGAGGACA,-0.205
18,CCCAACGG,0.0468
19,ATCGCGAC,0.0688
20,AGTTCGCA,-0.078
21,AACCGCAT,0.00925
22,ACCCGTTC,0.113
23,CCTGAGAG,-0.123
24,AAGCCACC,-0.236
25,CGAGCTAG,0.0329

row,Sequence,PBM E-score
1,ATGACAAA,0.136
2,AATTGGCT,-0.00062
3,CGTTTAAC,0.057
4,ACTAAACT,0.0724
5,CGAAGCGC,-0.0276
6,TACTCTCA,-0.00595
7,GATTGTGA,0.0985
8,GACAGCTC,-0.0523
9,GTTGAGCA,-0.085
10,GAAAGGAC,-0.0888
11,ATAGTTAA,0.0931
12,CCGAGCCC,-0.343
13,CGCCGGTC,-0.025
14,CCCTACCA,0.0153
15,TGGTCTAA,0.00287
16,CTACTGTA,0.0549
17,AAAATTGA,0.226
18,AGTTTGCC,0.139
19,GCGGCAGA,-0.128
